PubChem BioAssay AID1508642 (National Center for Advancing Translational Sciences (NCATS), 2021)
Among all 43,000 compounds or so, about 200 (0.47%) were called active. Roughly 12% stayed inconclusive and do not appear here. Calls follow the shape of the dose curve; as a rule, active = well fitted cell-killing curve with a large enough effect; inconclusive = small, poorly fitted or top-dose-only effect, or effect the other way; inactive = flat fitted curve, though single readings scatter. This is one part of the list.

Test: Cell viability qHTS assay in S16 Pmp22-F2sN cells; also: nearly all actives have a fitted effect of over 65% in size
Conditions: S16 Pmp22-F2sN Schwann cells viability, CellTiter-Glo, 24 h; series mostly up to 57.5 µM; activity change, negative = cytotoxicity: at the top concentration
Method in brief: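 Viability was measured by CellTiter-Glo luminescence (15 min, room temperature). This followed 24 h at 37 °C of compound exposure (23 nL pin transfer) in S16 Pmp22-F2sN Schwann cells, 500-1,000 per well.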
% is scaled to controls: 0 for no effect and ±100 for the full control effect.

| SMILES | activity change, negative = cytotoxicity |
| --- | --- |
| Cc1cc(=O)n2nc(N3CCC(C(=O)NCc4ccccc4Cl)CC3)sc2n1 | inactive: 15.4% |
| COc1ccc(OC)c(S(=O)(=O)Nc2ccc3[nH]c(=O)[nH]c3c2)c1 | inactive: -17.7% |
| Cc1cccc(CN2C(=O)c3ccccc3S(=O)(=O)c3ccc(C(=O)N4CCCC4)cc32)c1 | inactive: -0.563% |
| COc1ccc(NS(=O)(=O)c2ccc3c(c2)oc(=O)n3C)cc1Cl | inactive: -16.6% |
| COc1cccc(NC(=O)c2nnn(Cc3cccc(C(F)(F)F)c3)c2N)c1 | inactive: 0.0977% |
| Cc1ccc2nc(Cl)c3cc(C(=O)NC4CCCCC4)sc3c2c1 | inactive: 3.82% |
| COc1ccc(OC)c(NC(=O)C(NS(=O)(=O)c2ccc3c(c2)CCCC(=O)N3)C(C)C)c1 (centres undefined) | inactive: -6.81% |
| COc1ccc(C(=O)Nc2nc3nc(C)c(Cl)c(=O)n3[nH]2)cc1 | inactive: 9.31% |
| Cc1ccc(-c2cnc(NCc3c(F)cccc3Cl)n2C)cc1 | inactive: -18.4% |
| CCOc1ccc(NC(=O)Cn2c(=O)c(CNc3ccc(OC)cc3)cc3ccc(OC)cc32)cc1 | inactive: 9.38% |
| CCOC(=O)c1cc(S(=O)(=O)N2CCN(c3cc(Cl)ccc3C)CC2)[nH]n1 | inactive: -2.17% |
| CN1CCc2nc3sc(C(=O)Nc4c(F)cccc4F)c(N)c3cc2C1 | inactive: -0.579% |
| CCc1ccc(S(=O)(=O)N(C(C)=O)c2ccc3oc4c(c3c2)CCCC4)cc1 | inactive: -27.5% |
| CCOc1ccc(C(=O)Nc2ccc3c(c2)N(C(C)=O)CCC3)cc1OCC | inactive: -26.5% |
| COc1ccc(NS(=O)(=O)c2ccc3c(c2)NC(=O)CCS3)c(OC)c1 | inactive: 4.49% |
| CCOc1ccc(C2c3c(oc4cc(C)c(C)cc4c3=O)C(=O)N2c2ccccn2)cc1 (centres undefined) | inactive: 3.86% |
| CCC(C(=O)Nc1cc(C)ccc1OC)n1nnc(C(=O)OC)c1C(=O)OC (centres undefined) | inactive: -21.1% |
| COc1ccccc1N1CCN(S(=O)(=O)c2ccc(-n3cnnn3)cc2)CC1 | inactive: -5.57% |
| CCOC(=O)N1CCc2c(sc3c2c(=O)n(-c2ccc(CC)cc2)c(=O)n3Cc2cccc(OC)c2)C1 | inactive: 18.8% |
| CN(C)c1ccc(CN(Cc2ccco2)C(=O)c2ccc(F)cc2)cc1 | inactive: 5.5% |
| COc1ccccc1CNC(=O)CCC(=O)N1Cc2ccccc2Oc2ncccc21 | inactive: 2.45% |
| Cc1ccc(-n2nc3c(N4CCC(C(=O)N(C)Cc5ccccc5)CC4)nnc(C)c3c2C)cc1 | inactive: -8% |
| Cc1ccc(C)c(S(=O)(=O)n2nc(C)c(S(=O)(=O)N3CCC(C)CC3)c2C)c1 | inactive: 21.2% |
| CC(=O)Nc1ccc(S(=O)(=O)Nc2nc3n(n2)C(c2ccccc2)C=C(c2ccc(Cl)cc2)N3)cc1 (centres undefined) | inactive: 5.25% |

| SMILES | activity change, negative = cytotoxicity |
| --- | --- |
| COc1cc(Cl)c(C)cc1Nc1nnc(-n2nc(C)cc2C)c2ccccc12 | inactive: 2.59% |
| COc1cccc(NC(=O)C2CCCN2S(=O)(=O)c2ccc3nc(-c4ccccc4)[nH]c3c2)c1 (centres undefined) | inactive: 19.2% |
| COc1ccc(OCc2nc(C#N)c(NCc3ccccc3Cl)o2)cc1 | inactive: 19.5% |
| COc1cccc(N2CCN(C(=O)c3c4c(nc5ccccc35)C(=O)N(C3CCCCC3)C4)CC2)c1 | inactive: -5.9% |
| Cc1cc(SCC(=O)Nc2nsc(-c3ccc(C(C)(C)C)cc3)n2)nc2ccccc12 | inactive: 0.448% |
| CCCOc1ccc(-c2cccc(NS(=O)(=O)c3ccc(CC)cc3)c2)nn1 | inactive: -22.4% |
| COc1ccc(NC(=O)CN2CCN(c3ccccc3F)CC2)c(OC)c1 | inactive: 9.77% |
| COc1ccc(C(=O)N2CCN(C(=O)COc3ccc(C)cc3)CC2)cc1OC | inactive: -8.4% |
| O=C(Cn1cc(S(=O)(=O)N2CCN(c3ccccc3F)CC2)c2ccccc2c1=O)Nc1ccc(F)cc1Cl | inactive: -3.91% |
| COc1cc2c(C(=O)N3CCN(c4cc(Cl)ccc4C)CC3)cn(CC(C)C)c(=O)c2cc1OC | inactive: 10% |
| COc1ccc(S(=O)(=O)NCCc2sc(-c3cccc(F)c3)nc2C)cc1 | inactive: -4.08% |
| O=C(Nc1ccccc1F)C(Cc1ccccc1)N1Cc2ccccc2C1=O (centres undefined) | inactive: 9.43% |
| CC(C)c1ccc(NC(=O)c2ccc(F)c(S(=O)(=O)N3CCN(c4ccccc4F)CC3)c2)cc1 | inactive: -4.44% |
| Cc1ccc(-c2nn3c(=O)cc(CN4CCN(C(=O)c5ccc(C(C)(C)C)cc5)CC4)nc3s2)cc1 | inactive: 15.8% |
| CCc1ccc(S(=O)(=O)n2ccnc2)cc1 | inactive: 7.89% |
| COCCn1c(=NC(=O)c2ccc3c(c2)OCCO3)sc2cc(NC(C)=O)ccc21 | inactive: 0.808% |
| O=C(Nc1ccc(F)cc1F)N1CCc2c(sc3c2CCCC3)C1c1ccc(F)cc1 (centres undefined) | inactive: -2.14% |
| COc1cc(NS(=O)(=O)c2ccc(NC(=O)c3ccc(OC)c(Br)c3)cc2)nc(OC)n1 | inactive: -6.16% |
| Cc1ccc(NC(=O)CSc2nccn2Cc2ccc3c(c2)OCO3)c(C)c1 | inactive: -1.64% |
| Cc1cc(C)c(NC(=O)CN(C)S(=O)(=O)c2ccc3c(c2)c(=O)n(C)c(=O)n3C)c(C)c1 | inactive: 2.29% |
| CCC(C)NC(=O)CCC(=O)NNc1nc2ccccc2c2nc(C)nn12 (centres undefined) | inactive: 16.3% |
| Cc1ccc(C)c(N2CCN(C(=O)C3CCCN(S(=O)(=O)c4cccc5nonc45)C3)CC2)c1 (centres undefined) | inactive: -24.5% |
| CCOCCc1nn2c(=O)cc(COC(=O)c3cccc(C)c3)nc2s1 | inactive: 7.04% |
| Cc1ccc(-c2cc(C(=O)Nc3c(C(=O)c4ccc(C)c(F)c4)oc4ccccc34)no2)cc1 | inactive: 4.21% |

| SMILES | activity change, negative = cytotoxicity |
| --- | --- |
| CCOC(=O)c1c(NC(=O)CSc2cn(CCNC(=O)c3c(F)cccc3F)c3ccccc23)sc2c1CCCC2 | inactive: 3.4% |
| Cn1c(=O)c2c(n3c4ccccc4nc13)NC(=O)CC2c1cccc(Cl)c1 (centres undefined) | inactive: -18.2% |
| COC(=O)c1sccc1S(=O)(=O)N1CCN(c2ccc(C(C)=O)cc2)CC1 | inactive: 6.73% |
| COc1ccc(Cl)cc1NC(=O)Cn1nnc(C(=O)NCc2ccc3c(c2)OCO3)c1N | inactive: 6.89% |
| CCN(CC)CCOC(=O)c1ccc(NC(=O)c2cc3cccc(OC)c3oc2=O)cc1 | inactive: 0.527% |
| COc1ccc(S(=O)(=O)NCCc2sc(-c3ccccc3)nc2C)cc1F | inactive: -0.958% |
| CC(=O)c1ccc(NC(=O)c2cc(C3CC3)nc3c2c(C)nn3-c2ccc(C)cc2)cc1 | inactive: 26.8% |
| COc1ccccc1CN(Cc1ccco1)c1cnc(S(C)(=O)=O)nc1C(=O)Nc1ccccc1Cl | inactive: -0.216% |
| CCOc1ccc(CCNC(=O)CCCc2nnc3n(C)c(=O)c4sccc4n23)cc1OCC | inactive: 7.13% |
| Cc1c(C(=O)OC2CCC(C)CC2)[nH]c2c1C(=O)CC(c1ccccc1Cl)C2 (centres undefined) | inactive: -27.8% |
| COc1ccc(OCC(=O)Nc2nc(-c3ccc(Br)cc3)ns2)cc1 | inactive: -4.14% |
| COc1ccc(NC(=O)NCc2c(-n3cccc3)sc3c2CCCC3)c(OC)c1 | inactive: 2.88% |
| CCNc1nc(NC(C)CC)nc(Oc2ccc(OCC)nn2)n1 (centres undefined) | inactive: -5.51% |
| CCc1cccc(C)c1NC(=O)NC1COc2ccccc2C1 (centres undefined) | inactive: -1.76% |
| O=C(Nc1ccc(Cl)cc1)c1cc(S(=O)(=O)N2CCCc3ccccc32)ccc1F | inactive: -24.2% |
| CCOC(=O)c1noc2ncn(Cc3cccc(C#N)c3)c(=O)c12 | inactive: 1.01% |
| O=C(CCCn1c(=O)[nH]c2ccsc2c1=O)N1CCN(c2cccc(C(F)(F)F)c2)CC1 | inactive: -10.7% |
| Cc1cc(Cl)ccc1NC(=O)CN1C(=O)COc2ccc(S(=O)(=O)N3CCC(C)CC3)cc21 | inactive: 7.03% |
| COc1ccc(NCc2cc3cc4c(cc3n(CC(=O)Nc3ccccc3)c2=O)OCO4)cc1 | inactive: -0.844% |
| COc1ccc(NC(=O)CSc2nc(-c3ccc(OC)c(OC)c3)[nH]c2-c2ccc(C)cc2)cc1 | inactive: -2.73% |
| COc1cccc(CNC(=O)Cn2nc3c(cc2=O)CCCC3)c1OC | inactive: 4.29% |
| Cc1ccc(C2c3c(-c4ccccc4O)n[nH]c3C(=O)N2CCc2ccccc2)cc1 (centres undefined) | inactive: -25.2% |
| CC1CCCN(C(=O)CCS(=O)(=O)c2cc3c(cc2Cl)NC(=O)CO3)C1 (centres undefined) | inactive: 0.0764% |
| CCOc1ccc(CNC(=O)Cn2cc3c(n2)-c2c(oc(C(=O)N4CCCC4)c2C)CC3)cc1 | inactive: -17.8% |

| SMILES | activity change, negative = cytotoxicity |
| --- | --- |
| CCCC1=Nc2cc(C(=O)NCC(C)c3ccccc3)ccc2Sc2ccccc21 (centres undefined) | inactive: -5.13% |
| CCOC(=O)Cn1c(=O)oc2cc(S(=O)(=O)N3CCCC(C)C3)ccc21 (centres undefined) | inactive: -2.79% |
| CCCCn1cc(S(=O)(=O)c2ccc(Cl)cc2)c(=O)c2cc(F)c(N3CCCC(C)C3)cc21 (centres undefined) | inactive: -14.8% |
| CCOC(=O)c1cc(S(=O)(=O)N2CCN(c3cccc(OC)c3)CC2)[nH]n1 | inactive: 1.34% |
| CCc1cnc2c(c1SCC(=O)Nc1ccc(OC)c(OC)c1)c(=O)n(C)c(=O)n2C | inactive: 5.11% |
| CCCCOC(=O)Cn1nnc2sc(-c3ccccc3)cc2c1=O | inactive: 7.62% |
| COc1ccc(CCNC(=O)CSc2cn(CCNC(=O)c3ccccc3F)c3ccccc23)cc1OC | inactive: -0.66% |
| CN1CCN(C(=O)C(=O)Nc2c3c(nn2-c2cccc(Cl)c2)CSC3)CC1 | inactive: 13.7% |
| O=C(CCCCn1c(=O)c2ccccc2n(CC(=O)Nc2ccc(F)cc2F)c1=O)NCc1ccccc1Cl | inactive: 18.1% |
| O=C(CSc1ncc(-c2ccccc2)[nH]1)Nc1ccc(F)cc1F | inactive: 3.6% |
| COc1ccc(Nc2cc(C(=O)NCc3cccs3)c3ccccc3n2)cc1 | inactive: 17.9% |
| CCOC(=O)c1c(C)[nH]c(C)c1S(=O)(=O)N1CCCC(C(=O)NCc2ccc(C)cc2)C1 (centres undefined) | inactive: -4.54% |
| Cc1ccc(Cn2c(=O)n(CCc3ccccc3)c(=O)c3c(C)c(C)sc32)cc1 | inactive: -16.6% |
| CCc1ccccc1N1C(=O)N(CC(=O)c2ccc(Cl)cc2)c2ccccc2S1(=O)=O | inactive: 1.26% |
| Cc1cc(C)c(NC(=O)c2cc(S(=O)(=O)NCCC3=CCCCC3)ccc2F)c(C)c1 | inactive: -2.42% |
| Cc1ccc(-n2ncc(C(=O)NCCN3CCCC3)c2C2CCN(C(=O)OC(C)(C)C)CC2)cc1 | inactive: -2.64% |
| Cc1cc(C)n(-c2nc3cc(Cl)ccc3nc2Nc2ccc(C)c(F)c2)n1 | inactive: 3.2% |
| Cc1ccc(NC(=O)Cn2nnc3sc4c(c3c2=O)CCC(C)C4)cc1 (centres undefined) | inactive: 10.1% |
| COc1ccc(Cn2c(CCC(=O)Nc3ccc(C)cc3)nc3cccnc32)cc1 | inactive: 1.67% |
| CCOc1ccccc1NC(=O)N1c2ccccc2Sc2ccccc21 | inactive: -14.9% |
| CCOc1ccc(N(C)S(=O)(=O)c2c(C(=O)N3CCC(C)CC3)c(C)n(C)c2C)cc1 | inactive: 4% |
| Cc1cccc(-n2ncc(C(=O)N3CCN(Cc4ccccc4)CC3)c2C2CCN(C(=O)OC(C)(C)C)CC2)c1 | inactive: -5.97% |
